Measurements from the RNAGym collection of RNA variant scans (doi:10.7554/elife.90254).
The source gives no read counts; variants with many changes may rest on few reads.

B1: LINE1-mini (parent)
chain: GGCAGAGCUCAACACAGCGUGGCAAAGUGGCUGUGGCUAGACUGCC

Variants of: B1
Test: self-cleavage, relative activity (ratio to wild type); higher = more cleavage; in vitro, sequencing; the parent is a self-cleaving ribozyme
Work on GGCAGAGCUAAACAAAGGGUGGCACAGUGGGUGUGGCUAGAGUGCC yielded a self-cleavage of 0.01. For GCCAGAGCUCAACACAGCGUCGCAAAGGGCCUGUUGCUAGACUGCC, the self-cleavage was 0.02. With GGCAGGGUUCAACACAGCGUGGCAAACUGGCUGUGGGUAUACUGCC the self-cleavage was 0.02. Variant GGCAGAGUUAAACACAGCGUGGCAAAGUGGCUGUGGCUACACUACC has a self-cleavage of 0.08. CGCAGAGCUCAACAAAGCGUUGCAAAGUGGCUGUGGCUAGACUGCU gave a self-cleavage of 0.04. GGCAGAGAUCAACAUAGCGUGGCACAGUGGCUGUGGCUAUACUGCC gave a self-cleavage of 0.15. In the case of GGCAGAGCUCAACACACCGUGGCAAAGUGGCUGUGGCUAGACUUCG, the self-cleavage is reported as 0.08. Variant GGCAGAGCUCAACACAGUGCGGCAAAGUGACUGUGGCAAGACUGCC has a self-cleavage of 1.11. Work on GGCAGAGCUCAAGACAGCGUGGCAGAGUGGCUGUAGCUAAACUGCC yielded a self-cleavage of 0.03. With GGUAGUGCUCAACACAGCGUGGCAAAGUGGCUGUGGCUAAACUGCC the self-cleavage was 0.21. Work on GGCAGAACUCAACACAGCGUGUCAAAGUGGCUGUGGCUAGACAGCC yielded a self-cleavage of 0.11. In the case of GGCAGAGCUGAACACAGCGUGUCAAAGUGGCUGUGGCUAGACUGCU, the self-cleavage is reported as 0.09. GGCAGAGCCCAACACAGGGUGGCAAAGUGGCUGCCGCUAGACUGCC gave a self-cleavage of 0.02. GGCAGAACUCAACACAGCGUGGCAAAGUGGCUGUAGCUAAACUUCC showed a self-cleavage of 0.64. GGCAGAGCUCAACACAGCGUGGCAAAGUAGUCGUGGCAAGACUGCC gave a self-cleavage of 0.23. GGCAGAGCUCAACACAACGUGGCUAAGUGGCUGUGGCUAUAUUGCC gave a self-cleavage of 0. GGCAGGGCUCAAAACACCCUGGCAAAGUGGCUGUGGCUAGACUGCC gave a self-cleavage of 0.03. Work on GGAAGAGCUCAACACAGCGUGGCAAAGUGGCUGUUGCUAGUCUGCC yielded a self-cleavage of 0.16. GGAAGAGCUCAACACAGCGUGGCAAAGUGGCUGUGGCUAGAUUGCA gave a self-cleavage of 0.04. Work on GGCAUAGCUCAACACAGCGUGGCAAAGUGGCUGUGCCUAGACCGCC yielded a self-cleavage of 0.02. With GGCAGAGCGCAACACAGCGUGGCAAAGUGGCUGUAGUUAGACAUCC the self-cleavage was 0.03. In the case of GGUAGAUCUCAACACAGCGUGGCAAAGGGACUGUGGCUAGCCUGCC, the self-cleavage is reported as 0.04. For CGCAGGGCUCAACACAGCGUGGCAAAGUAGCUGUGGCUAGACUGCC, the self-cleavage was 0.01. Work on GGCAUAAUUCAACACAGCGCGGCAAAGUGGCUGUGGCUAGACUGCC yielded a self-cleavage of 0.47. Variant GGCAGCGCUCAACACAGAGUGGCAAAGUGGCUGGGGCUAGACUGCC has a self-cleavage of 0.05. In the case of GCAAGAGCUCAACACAGCGUGCCAAAGUCGCUGUGGCUAGACUGCC, the self-cleavage is reported as 0.07. Work on GUCAGGGCUCAACACAUCGUGGCAAAGAGUCUAUGGCUAAACUGCC yielded a self-cleavage of 0. For GGCAUAGCUCAACACAGCGUGGCAAAGUGGAUGUGGGUAGACUCCG, the self-cleavage was 0.04. For GGCAGAGCUAAGCACAGCGUGGCAUAAUGGCUGUGGCUAGACUGCC, the self-cleavage was 0. In the case of GGCAGAGCUCAACACAGCGUGUCAAAGUGGCCGUGGCUAGACUGGC, the self-cleavage is reported as 0.06. CGCUGAGCCCAAUACAGCAUGGCAAUGUAGCUGUGGGUAGACUGCC gave a self-cleavage of 0.01. With AGCAGAGCACAACACAGCGUCGCAGAGUGGCUAUGGCAAGACUGCC the self-cleavage was 0.06. In the case of GGCAGCGCUAAACACAGCGUGGCAAAGUGGCUGUGGCUAGACUUUC, the self-cleavage is reported as 0. Work on GCCAGAGCUCAAAACAGCGUGGAAAAGGUACUGUGGCUAGACUGCC yielded a self-cleavage of 0.12. UGCAGAGCUCCACACAGCGUGGCAAAUUCGCUGUGGCUAGACCGCC gave a self-cleavage of 0.01. With GGCGGACCCCAACACGGCGUGGCAAAGGGGCUGUGUCUAGACUGCU the self-cleavage was 0. With GGCAAUGCUCUACACAGCGUGGCAAAGUGGCUGUGGCUAGAUUGCC the self-cleavage was 0.07. With GGCAGAGCUCAACUCAGCGAGGCAAUGUGGCUGUGGCUACACUGCC the self-cleavage was 0.1. With AGCAGAGCUCAACUCAGCCUGGCAAAGUGGCUGUGGCUAAACAGCC the self-cleavage was 0.01. AGCAGAGUUCAACACGGCGUGGCAAAUUUGCUGUGGCUAGACUGCC showed a self-cleavage of 0.11. For GGCAGAGCUUAACACAGCGUGGCAUAGUGGCUGUGGCUAGCCUAAC, the self-cleavage was 0.01. For GGCAGAGCUCAACACAGCGUGGGGAAGUGGCUGUGGGUAGACUGCC, the self-cleavage was 0.04. Variant GGCAGAGCUUAACACAGCUUGGCAAAGUGGCUGUGGCUAGACAGCC has a self-cleavage of 0.05. For GGCAGAGCUCAACACACCGUGCCAAAGUGGCUGUGGCUACACUGCC, the self-cleavage was 0.02. GGCAGAGCUCAAAGCAACGUGGCAAACUGGCUGUGGCUAGUCUGCC showed a self-cleavage of 0.03. Work on GGCAGAGCGCAACACAGCGUGGCCAAGUGUCUGUGGCUAGACUGCC yielded a self-cleavage of 0.04. With GGCAGAGCUCAACACAACGUGGCAAAGUGGCUGUGGCUAGAGAGCC the self-cleavage was 0.01. For GGCUGAGCUCAACACAGCGUUGCAAAGUGGCUGGGGCUAUACUGCC, the self-cleavage was 0.01. Work on CGCACAGAUCCACACUGCAUGCCAAAGUCGCUGUGGCUAGACUGCC yielded a self-cleavage of 0.01. For GGCAGAGCUCAACACAGUGAGGCAAAGUGGCUGUGGGUAGACUGCC, the self-cleavage was 0.01. Variant GGCAGAACUCAACCCAGCGAGGCAAAGUGGCUGUGGCUAGACUGCC has a self-cleavage of 0.14. Work on GGCAGAGCUCAACACAGCGUGGCAAAGCGCCUUUUGCUAGACUGCC yielded a self-cleavage of 0.15. Variant GACAGAGCUCAGCACAGCGUGGCAAAGUGGCUGUGGCUAGACCGCC has a self-cleavage of 0.06. Work on UGCAGAGCUCAUUACAGCGUGGCAAUGUGGCUGUGGCUAGACUGCC yielded a self-cleavage of 0.04. In the case of GGCAUAGAUCAACACAGCGUGGCAAAGUAGCUGUGGCUAGACCACC, the self-cleavage is reported as 0.08. With GGCAGAGCUCAACACAGCGUGGCAAAGGGGCCCUGGCUAGACUGCC the self-cleavage was 0.05.
